Source: ChEMBL document CHEMBL4888484, “Replenishing the malaria drug discovery pipeline: Screening and hit evaluation of the MMV Hit Generation Library 1 (HGL1) against asexual blood stage Plasmodium falciparum ,using a nano luciferase reporter read-out” (2022)
Hit rate of the full screen: of about 150,000 compounds, about 540 (0.36%) showed an effect of 50% or more. This is one part of the list.

test system: Plasmodium falciparum; test: Primary screen in NF54 nanoGlo assay, in single point, at 2uM, 72h; a lower Z score goes with more inhibition; assay type: functional, Erythrocyte; conditions: timepoint 72 hour

SMILES	% Inhibition [%]	Z score
CCN(CC)C(=O)[C@@H]1C[C@H](NC(=O)c2cccc(OC(F)F)c2)CN1C	-6	0.71
Cc1noc(C)c1S(=O)(=O)N1CC[C@@H]2COCCN(Cc3ccccc3)[C@@H]2C1	-11	1.44
CCN1CCCCC1C(=O)N[C@H]1[C@@H]2COC[C@@H]21 (some centres not stated)	-6	1.03
CC1(C)CCN(C(=O)NCCc2cnc(C3CC3)nc2)CC(C)(C)C1	-6	0.89
Cn1c([C@@H]2CCCN2C(=O)c2ccco2)nc2ccccc21	-1	0.14
Cn1ccnc1C(=O)NCc1nc2ccccc2[nH]1	-1	0.26
CCc1nnc(-c2nnc(NCc3nc4ccccc4n3C)c3ccccc23)o1	12	-1.43
CCc1nc(C)c(NC(=O)NCc2ccccn2)s1	1	-0.09
Cc1ccc(CC[C@H](C)NC(=O)NCc2ncnn2C(C)(C)C)o1	-10	0.91
CC(=O)c1c(F)cc(F)cc1OCc1nnn(CC(F)(F)F)n1	0	0.01
COC[C@H](Nc1cncc(-n2nc(C)cc2C)n1)c1ccc(C)o1	-16	2.05
CCC(=O)Nc1ccc(N2CCN(C(=O)Nc3cccc(C)c3)CC2)c(C(=O)NCc2ccc(F)cc2)c1	1	-0.08
COc1ccc(C(=O)Cn2cnc3c2c(=O)n(C2CC2)c(=O)n3-c2ccccc2C)cc1	6	-0.74
Cc1cnn(CC(=O)N2CCO[C@H](c3nccs3)C2)c1	-5	0.73
CC12CCC(C(=O)Nc3cccc4ncccc34)(C(=O)C1=O)C2(C)C (configuration not stated)	-1	0.08
CN1CC2(C[C@H]1C(=O)N1CCOCC1)CN(Cc1ccccc1)C2	-7	0.8
Cc1n[nH]c(C(=O)N2CCCCCC2)c1Br	3	-0.33
CC(=O)NC1CCC(NCC2(c3ccc(F)cc3Cl)CC2)CC1 (configuration not stated)	-9	1.41
CC(C)C1=N[C@@H](Cc2ccccc2)C(=O)Nc2ccccc21	-3	0.58
CCCn1nccc1C(=O)N1CCC[C@@]2(CCN(C)C2)C1	1	-0.09
C=CCNc1nc(-c2ccc(O)c(OC)c2)cs1	-21	1.84

SMILES	% Inhibition [%]	Z score
CCCc1ccc(S(=O)(=O)N2CCc3[nH]cnc3C2)cc1	-15	1.8
Cc1ccnc(NS(=O)(=O)c2ccc(NC(=O)CS(=O)(=O)c3ccccc3)cc2)n1	-1	0.08
COCCC(C)(C)NC(=O)[C@H](C)c1ccccc1	-4	0.71
Fc1ccc(-c2cccc(-n3cnnc3)c2)c(Cl)c1	1	-0.14
O=C(CN1N=C(c2nc(-c3ccccc3)no2)CCC1=O)N1CCN(c2ncccn2)CC1	3	-0.4
COc1cc(F)ccc1N(C)S(=O)(=O)N(C)C	1	-0.12
Cc1cc(OCCN2CCOCC2)c(C)c2c1CC[C@@H]([C@H](C)C(=O)N1CCOCC1)C2	5	-0.78
N#Cc1ccc(OC2CCN(C(=O)c3cccc4c3CCC4)CC2)cc1	-1	0.15
CC1(C)CC(NC(=O)Cc2ccc(Cl)cc2Cl)CC(C)(CNC(=O)Cc2ccc(Cl)cc2Cl)C1 (configuration not stated)	-35	4.08
CCN1CCN(CCC(=O)N[C@H](C#N)C2CCCCC2)CC1	-8	0.64
Cc1cccc([C@@H](CC(=O)NC2CC2)c2cn(Cc3ccc(F)cc3)c3ccccc23)c1	-1	0.14
CCS(=O)(=O)c1c[nH]c(=O)c(C(=O)N2CCCc3ccccc32)c1	6	-0.8
CC(=O)N1CCC(CC(=O)Nc2nc(C)c(C)s2)(N2Cc3ccccc3C2=O)CC1	1	-0.13
Cc1ccc(NC(=O)N[C@H]2CCN(C(=O)C3CCCCC3)C2)c(C)c1	-4	0.69
O=c1cc(-c2ccccc2)nc(-n2[nH]c(-c3ccccc3)cc2=O)[nH]1	-9	1.33
Cn1cccc1-c1nnc(C2(c3cccc(Cl)c3)CCOCC2)o1	0	0.03
O=C(CCOCC(F)(F)C(F)F)N1CC2CCCCC2C1 (configuration not stated)	-8	0.7
COc1ccc(/C=C/CN2CCC[C@@H]2CCO)cc1	-9	1.43
Cc1ccc(CNC(=O)C[C@H](C)Cc2nnc3c(=O)n(-c4cccc(F)c4)ccn23)cc1	-8	1.18
Cc1ccc([C@@H](C#N)N2CCC(C)CC2)o1	-1	0.12
